# Among all 44,000 compounds or so, about 340 (0.77%) were called active. Another 5% or so got no clear call; they are omitted. Calls follow the shape of the dose curve; as a rule, active = well fitted inhibition curve with a large enough effect; inconclusive = small, poorly fitted or top-dose-only effect; inactive = flat fitted curve, though single readings scatter. The list shows a part of the results.
# Experiment: Acumen qHTS Assay for Inhibitors of the mTORC1 Signaling Pathway in MEF (Tsc2-/-, p53-/-) Cells: Sytravon;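 also: plate controls were DMSO for no effect and rapamycin for full effect; nearly all actives have a fitted effect of over 50% in size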
# Details: phospho-rpS6 immunofluorescence/PI, 24 h; series mostly up to 38.3 µM; activity change, negative = inhibition: at the top concentration
# Outline: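 Readout is phospho-S6 Alexa 488 signal normalized to PI per well, reported as % active cells with thresholds set from rapamycin (7.5 nM) and DMSO controls. Cells: Tsc2-/-, p53-/- MEFs, 24 hrs compound at 37 C; PI cell number serves as viability.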
row,Structure (SMILES),"activity change, negative = inhibition"
1,O=S(=O)(c1ccccc1)n1nc(-c2ccccc2)nc1NCc1ccc(Cl)cc1,inactive: -0.0797%
2,CCOc1ccc(N(CC)S(=O)(=O)N2CCCC(C(=O)NCc3ccccc3Cl)C2)cc1 (stereo not given),inactive: -9.52%
3,CCOc1cccc(CC(=O)N2CCc3c([nH]c4ccccc34)C2c2ccc(F)cc2)c1OCC (stereo not given),inactive: 9.87%
4,CCOc1ccc(CC(=O)Nc2c(C(=O)c3ccc(C)cc3)oc3ccccc23)cc1OCC,inactive: -15.4%
5,CCC(=O)N1CCc2cc(Br)cc(S(=O)(=O)N3CCCC(C(=O)Nc4cccc(Cl)c4C)C3)c21 (stereo not given),inactive: -0.511%
6,CCCCNC(=O)CCn1c(=O)c2ccccc2n(Cc2ccccc2C#N)c1=O,inactive: -18%
7,Cc1ccc(C(=O)COC(=O)C(CC(C)C)NC(=O)C2CCC(C)CC2)cc1 (stereo not given),inactive: -0.367%
8,CCc1ccccc1NC(=O)c1ccc2nc(CCc3ccccc3)oc2c1,inactive: -8.74%
9,COc1cc(C2N=C(N)Nc3nc4ccccc4n32)ccc1OCCC(C)C (stereo not given),inactive: 0.566%
10,O=C(Cc1cccc([N+](=O)[O-])c1)NCc1nc2cccnc2n1Cc1ccc(F)cc1,inactive: -7.82%
11,CC(=O)c1cccc(NC(=O)C2CCCN(c3nnc(-n4cccc4)s3)C2)c1 (stereo not given),inactive: -5.6%
12,Cn1c(=O)cc(OCCCC(=O)Nc2ccc(F)cc2)c2ccccc21,inactive: -13.8%
13,CCCN(CCC)CCCNC(=O)C1CCCN(S(=O)(=O)c2cccc3nsnc23)C1 (stereo not given),inactive: -6.2%
14,Cc1ccccc1-c1nc(CS(=O)(=O)CC(=O)N2CCN(c3ccccc3)CC2)c(C)o1,inactive: 1.08%
15,CCOC(=O)c1cc(C)n(CC2CCC(C(=O)Nc3ccc(Cl)cc3)CC2)c1C (stereo not given),inactive: -2.27%
16,CCOc1ccc(CCNC(=O)Cn2nnc(-c3ccccc3)n2)cc1OCC,inactive: -1.92%
17,CC(=O)Nc1cccc(C(=O)NCc2ccc3c(c2)CCN3C(=O)c2ccccc2)c1,inactive: -1.11%
18,COc1cc(NS(=O)(=O)c2ccc(NC(=O)c3ccccc3C(=O)O)cc2)nc(OC)n1,inactive: 2.96%
19,COc1cc(OC)c(NC(=O)NC(C)c2c(-n3cccc3)sc(C)c2C)cc1Cl (stereo not given),inactive: -2.93%
20,Cc1ccc2cccc(NC(=O)c3ccc(-c4cccc([N+](=O)[O-])c4)o3)c2n1,inactive: 1.77%
21,COc1cccc(C(=O)Nc2cc(-c3ccccc3)no2)c1,inactive: 3.45%
22,CC(C)CC(=O)Nc1ccc(C(=O)OCc2cc(=O)n3nc(C(C)C)sc3n2)cc1,inactive: 22.2%
23,COc1ccc(C(=O)N2CC(=O)Nc3ccc(F)cc3C2c2ccc(F)cc2)c(OC)c1 (stereo not given),inactive: -19.2%
24,CC(C)CC(NS(=O)(=O)c1ccc2c(c1)oc(=O)n2C)C(=O)NCCc1ccc(Cl)cc1 (stereo not given),inactive: 2.72%

row,Structure (SMILES),"activity change, negative = inhibition"
1,COC(=O)c1ccc(NC(=O)c2cc(S(=O)(=O)N3CCc4ccccc43)cn2C)cc1,inactive: -2.38%
2,Cc1ccc(NC(=O)c2oc3ccccc3c2NC(=O)c2cc3ccccc3o2)cc1,inactive: -12.7%
3,O=C(CSc1cn(CCNC(=O)c2c(F)cccc2F)c2ccccc12)Nc1ccc2c(c1)OCCO2,inactive: -1.87%
4,O=C(OCc1cc(=O)n2nc(C3CC3)sc2n1)c1ccc(F)cc1,inactive: 0.322%
5,CCOc1ccccc1NC(=O)Cn1cnc2onc(-c3ccc(F)cc3)c2c1=O,inactive: -2.08%
6,Cc1cc(C)cc(NS(=O)(=O)c2ccc3[nH]cc(C(=O)N4CCCC4)c(=O)c3c2)c1,inactive: -0.259%
7,CC1=C(C(N)=O)C(c2cccc(Br)c2)n2nc(SCc3ccccc3)nc2N1 (stereo not given),inactive: 0.558%
8,CCCCc1nnc(SCc2cc(=O)c3cc(C(=O)OCC)ccc3[nH]2)n1C,inactive: -0.014%
9,O=C(NCc1cccnc1)C1CCN(Cc2cc3ccccc3n2Cc2cccc(Cl)c2)CC1,inactive: -20.2%
10,CC(C)N(Cc1ccccc1)C(=O)CCS(=O)(=O)c1cc2c(cc1Cl)NC(=O)CO2,inactive: -12.2%
11,Cc1cc(NC(=O)C(C)C)cc(-c2nc3ncccc3o2)c1O,inactive: 0.413%
12,Cc1ccc2nc(-c3ccc(O)cc3)c(Nc3ccc4c(c3)OCO4)n2c1,inactive: 1.48%
13,Cc1cc(C)n2nc(SCC(=O)Nc3ccccc3)nc2n1,inactive: -0.477%
14,COc1cc(-c2nnc(SCC(=O)Nc3ccc(F)c(Cl)c3)o2)cc(OC)c1OC,inactive: 1.64%
15,CCCNC(=O)C1CCN(S(=O)(=O)c2ccc3c(c2)CCCN3C(C)=O)CC1,inactive: -0.301%
16,Cc1cc2nc(-c3cc(NC(=O)c4cc5ccccc5o4)ccc3Cl)oc2cc1C,inactive: 9.73%
17,COc1cccc(C(=O)Nc2ccccc2OCc2cc(=O)n3cc(C)ccc3n2)c1,inactive: 4.38%
18,CCc1ccc(NC(=O)CSc2nc3n[nH]c(C)c3c(=N)n2-c2ccccc2C)cc1,inactive: -7.04%
19,Cc1oc(-c2ccc(Cl)cc2)nc1CS(=O)CC(=O)NCc1ccc(Cl)cc1 (stereo not given),inactive: -0.548%
20,COc1ccc(N(CC(=O)NCCc2cccc(C)c2)S(=O)(=O)c2c(C)nn(C)c2C)cc1,inactive: 1.54%
21,CCOC(=O)C1=C(CS(=O)(=O)c2c(C)cc(C)cc2C)NC(=O)NC1c1cccc(OC)c1 (stereo not given),inactive: -20.4%
22,COc1ccccc1N1CCN(C(CNC(=O)C(=O)NCCCN(C)C)c2cccnc2)CC1 (stereo not given),inactive: 4.67%
23,O=C1CC(c2ccccc2C(F)(F)F)c2c(c3ccccc3[nH]c2=O)O1 (stereo not given),inactive: -11.4%
24,N#Cc1c(NC(=O)c2cc3nc(-c4ccc(Br)cc4)cc(C(F)(F)F)n3n2)sc2c1CCCC2,inactive: -1.26%

row,Structure (SMILES),"activity change, negative = inhibition"
1,COC(=O)c1cccc(Nc2c(-c3ccc(O)c(OC)c3)nc3nc[nH]n23)c1,inactive: -0.407%
2,COCc1cc(C)nc2sc3c(c12)NC(c1ccc(O)cc1)N(c1ccc(OC)cc1)C3=O (stereo not given),inactive: -4.73%
3,CCOc1ccc(NC(=O)C2Cc3ccccc3N2C(=O)c2ccccc2)cc1 (stereo not given),inactive: 9.04%
4,CCCCOc1ccc(CNC(=O)C2CCN(c3nnc(-n4cccc4CNc4ccc(C)cc4)s3)CC2)cc1,inactive: -0.926%
5,COc1ccc2c(c1)CCc1c(C(=O)Nc3cc(C)ccc3O)noc1-2,inactive: -10.3%
6,COc1cc(Cn2c(=O)sc3ccccc32)ccc1OC(C)C,inactive: 9.01%
7,COc1ccccc1NC(=O)Cc1c(C(=O)O)[nH]c2ccc(Cl)cc12,inactive: -10.6%
8,COCCn1c(C)cc(O)c(C(c2ccccc2)N2CCN(C)CC2)c1=O (stereo not given),inactive: 6.07%
9,Cc1cccc(NC(=O)CSc2nc3ccc(NC(=O)c4ccco4)cc3s2)c1,inactive: -18.4%
10,Cc1ccc(C)c(N2CCN(CCCNC(=O)Nc3cc(Cl)ccc3C)CC2)c1,inactive: 3.05%
11,COc1ccc(CNC(=O)Cc2csc3ccccc23)cc1OC,inactive: -1.93%
12,CCc1nn(CC(=O)N2CCCCC2)c(=O)c2cc3sccc3n12,inactive: -3.08%
13,COc1cc(Br)c(/C=C(\C#N)c2nc3ccccc3[nH]2)cc1OC,inactive: -11.8%
14,CC(NC(=O)c1cc(Sc2ccc(F)cc2F)nc2ccccc12)c1ccccc1 (stereo not given),inactive: 15.2%
15,CCc1ccccc1NC(=O)C1CCC(CNS(=O)(=O)c2ccc3c(c2)CC(C)N3C(C)=O)CC1 (stereo not given),inactive: -7.22%
16,CCOc1ccc(-c2nnc(SCC(=O)NCCC(C)C)nc2-c2ccc(OCC)c(OC)c2)cc1OC,inactive: -1.64%
17,COc1ccc2nc(NC(=O)c3nc(SCc4ccc(F)cc4)ncc3Cl)sc2c1,inactive: 3.06%
18,Cc1cn2c(=O)c(S(=O)(=O)NCCc3ccccc3)c(C)nc2s1,inactive: 2.87%
19,CC(C)CN1CCc2nc(N3CCN(c4ncccn4)CC3)ncc2C1,inactive: 13.6%
20,Cc1ccc(N2C(=O)CSC23C(=O)N(CC(=O)NC2CCCCC2)c2ccccc23)cc1 (stereo not given),inactive: 0%
21,CC(C)OCCCNC(=O)c1ccc(-n2c(-c3ccccc3)cc3c2CCCC3)cc1,inactive: 0%
22,COc1ccc2nc(SCC(=O)c3c(C)[nH]c4ccccc34)nc(C)c2c1,inactive: 1.99%
23,CCOc1ccc(OCC)c(NC(=O)C2CCN(S(=O)(=O)c3ccc(Br)s3)CC2)c1,inactive: 6.82%
24,Cc1ccc(N2CCN(C(=O)Cc3c(C(=O)O)c(C)cn3C)CC2)c(C)c1,inactive: -3.6%

row,Structure (SMILES),"activity change, negative = inhibition"
1,Cc1ccc(S(=O)(=O)c2nnn3c2nc(N2CCN(c4ccc(F)cc4)CC2)c2cc(Cl)ccc23)cc1C,inactive: -3.98%
2,O=C(Nc1ccc(F)cc1)[C@H](CSCc1ccccc1)N1Cc2ccccc2C1=O,inactive: -5.71%
3,O=C(COC(=O)CCCC1=NS(=O)(=O)c2ccccc2N1)Nc1ccc(Br)cc1,inactive: 0.117%
4,COc1cccc(-n2c(=O)c3c(C)c(C(=O)N(C)C)sc3n(CC(=O)NCCc3ccc(OC)c(OC)c3)c2=O)c1,inactive: -8.47%
5,COc1ccc(-c2nc(C)c(CCNC(=O)Cc3ccc(F)cc3)s2)cc1OC,inactive: -7.25%
6,CCc1ccc(NC(=O)C2CCN(C(=O)N3CC(CC)Oc4ccccc43)CC2)cc1 (stereo not given),inactive: 9.38%
7,CCc1ccc(NC(=O)CSc2nc3nccnc3c(=O)n2CCc2c[nH]c3ccccc23)cc1,inactive: 0%
8,Cc1ccc(NC(=O)C(=O)NCC(c2cccnc2)N2CCN(C)CC2)cc1F (stereo not given),inactive: -13.6%
9,COC(=O)C(CCSC)NC(=O)c1c(C)oc2ncn(CC(C)C)c(=O)c12 (stereo not given),inactive: 1.45%
10,CCOC(=O)c1ccc(NC(=O)c2ccc3c(c2)NC(=O)c2ccccc2S3)cc1,inactive: -9.83%
11,Cc1c(Cl)cccc1NC(=O)CSc1ncccc1C(=O)Oc1ccccc1Cl,inactive: 6.9%
12,COc1ccc(CNC(=O)c2cccc(-n3cnc4cccnc43)c2C)cc1,inactive: -1.29%
13,COc1cccc(C(=O)Nc2ccc(-c3cn4cccnc4n3)cc2)c1OC,inactive: -28.7%
14,CCOCCSc1c(C)cnc2c1c(=O)n(C)c(=O)n2C,inactive: -10.3%
15,COc1cc2ccccc2cc1C(=O)Nc1ccc(Cl)c(-c2nc3ccccc3o2)c1,inactive: 3.87%
16,CCn1ccc2cc(S(=O)(=O)N3CCC(C(=O)NCCc4ccc(C)cc4)CC3)ccc21,inactive: 0.0358%
17,COc1cc(OC)cc(C(=O)NCC(c2cccs2)S(=O)(=O)c2ccc(F)c(C)c2)c1 (stereo not given),inactive: -0.0841%
18,COc1cc(C(=O)N2CCN(CCc3ccccn3)CC2)cc(OC)c1OC,inactive: -3.54%
19,COc1ccccc1NC(=O)CN1C(=O)C2(SCC(=O)N2c2ccc(C)c(C)c2)c2ccccc21 (stereo not given),inactive: -5.74%
20,Cc1ccc(N(CC(=O)Nc2cc(C)cc(C)c2)S(=O)(=O)c2cccc3nonc23)cc1,inactive: 2.19%
21,CC1=C(c2ccc(C)cc2)S(=O)(=O)N(Cc2ccc(C(=O)Nc3ccc(F)cc3C)cc2)C1=O,inactive: -19.4%
22,CC(C)c1ccc(C2N=C(N)Nc3nc4ccccc4n32)cc1 (stereo not given),inactive: -0.977%
23,CC(CC(=O)Nc1ccc(Br)cc1F)S(=O)(=O)c1ccc2c(c1)NC(=O)CO2 (stereo not given),inactive: -7.27%

# — PubChem BioAssay AID493208 (National Center for Advancing Translational Sciences (NCATS), 2011)
